# Assay results taken from publication PMC6212790.
# Some of the results follow. At the low end of the ranking the order means little.
# Target: T1, GST-Rok (full length) (UniProt O34857)
# T1 sequence: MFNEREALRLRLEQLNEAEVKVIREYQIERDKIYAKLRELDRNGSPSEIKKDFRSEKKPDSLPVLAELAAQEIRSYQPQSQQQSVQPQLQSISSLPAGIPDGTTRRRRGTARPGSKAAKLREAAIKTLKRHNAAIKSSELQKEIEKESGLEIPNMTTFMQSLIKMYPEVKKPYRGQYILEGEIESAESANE
# Assay: protein binding microarray;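 also: rank score from −0.5 (least bound) to 0.5 (best bound)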
# Conditions: Rok is a gene silencer of Bacillus subtilis; high values mean tight binding; most listed sequences are background and not binding sites; double strand, one strand shown
row,Sequence,binding signal [E-score]
1,AAGGTTGA,-0.0152
2,AACATAAT,0.219
3,GCCTGCAC,-0.258
4,AACGGGAG,-0.141
5,AATCCCAC,-0.106
6,AAGCTACG,0.0885
7,CTTCACTA,0.0662
8,AGGCACAA,0.0173
9,ACTGGGCT,-0.0701
10,CACCACGC,-0.207
11,CCGAACCC,-0.224
12,CCAAAACA,0.0981
13,GGAACCCC,-0.34
14,AGGATTCC,-0.156
15,ATTCAGCG,0.0186
16,CATAGCGC,0.00734
17,GTGTACTA,0.217
18,ACGGAAGG,-0.275
19,ACATACAG,0.123
20,CGCATTTC,-0.0281
21,TTATTAAA,0.168
22,CAACGTGC,-0.0926
23,GCACATGA,-0.00782
24,CCCTATTC,-0.194
25,CAATTTGA,0.0216

row,Sequence,binding signal [E-score]
1,GAATTGTC,-0.0803
2,GAGACTAA,-0.0972
3,TAGAGTCA,-0.0981
4,AGCGTATC,-0.0363
5,TCCGGCCA,-0.0782
6,CGTCGTAC,0.00676
7,CGGCCACG,-0.354
8,AGATGCTG,-0.0201
9,AGTCGTGG,-0.0529
10,GCTACCAA,0.324
11,ACACCTAT,0.213
12,GTAGCCAC,-0.144
13,ACTCGAGG,-0.0396
14,ATCTGGGG,-0.299
15,AAACACAC,0.107
16,AACGTTCG,-0.0966
17,ATCGGACC,-0.0937
18,ATGCCTAG,0.0499
19,CAAGAACA,-0.0847
20,CCCGCACG,-0.329
21,TACATGGA,0.135
22,CCCTGAAC,-0.279
23,ACCGCTCG,-0.107
24,CCGGTGAA,-0.229
25,CAATTTGC,-0.0672

row,Sequence,binding signal [E-score]
1,GAGTTTGC,0.0867
2,TGAAAAAA,0.0222
3,GAAGCATA,-0.0777
4,AGGGAAAA,-0.061
5,CCCACGCC,-0.292
6,ATTGCGTC,-0.051
7,ACTCCGTA,0.0187
8,AAATATTT,0.337
9,ACAGCCGT,-0.0492
10,AGGTACGG,-0.101
11,AATTAGCT,0.275
12,ATTGTGCC,0.0477
13,AATCGTTA,0.0165
14,GTCTATGA,-0.128
15,AGGTGTCA,-0.0859
16,GATGTTCA,0.0183
17,CCATCAGA,-0.019
18,GCCTTCAA,-0.171
19,CGTTTACA,0.0441
20,AATATTCA,0.282
21,ACTAGGCA,0.185
22,CACACGAG,-0.0272
23,GCGCCCGC,-0.34
24,ATTACACG,0.062
25,GTAGTCTA,0.175

row,Sequence,binding signal [E-score]
1,AAGACAGG,-0.161
2,AAATGCCT,-0.15
3,ACGAGAAG,-0.146
4,CTTGCCCA,-0.116
5,ATAATACA,0.237
6,AATATATT,0.41
7,ATGTTGAC,-0.0855
8,AGCCTATA,0.106
9,TGTCGAAA,0.187
10,AGAATCAG,0.202
11,CGCAGAAC,-0.0856
12,CTCGTTCC,-0.0919
13,AGTTGCAT,0.213
14,ATCGGGGA,-0.154
15,AGCTAGTC,0.078
16,TCGTATAA,0.179
17,GCCCTAAA,-0.182
18,AATTCATC,0.203
19,ACGGTGCT,-0.279
20,GCGATATA,0.342
21,GCTGCTGA,-0.177
22,GTAGTGTA,0.193
23,ACAAAGTC,-0.142
24,TAATAGAA,0.274
25,GGTAGGAA,0.208

row,Sequence,binding signal [E-score]
1,ATACAGGC,0.0887
2,GCAAGAGA,-0.0894
3,CGGTGGCA,-0.155
4,CCTAACAG,0.0291
5,GCAACTTA,0.225
6,AGCGTTCA,-0.203
7,CACACGCG,-0.148
8,AATCTACG,0.311
9,ATTACATA,0.208
10,ATTTGTGA,0.205
11,CTGCATAA,0.224
12,CGGGCGAC,-0.41
13,AACAAAAG,0.0913
14,GTATGTAA,0.321
15,CCTGATCA,0.065
16,AACGAGCA,-0.0882
17,CAAAAGGG,-0.234
18,GACGTTGC,-0.104
19,AGCATAGG,0.128
20,ACATTCAT,0.217
21,TCATTAAA,0.0589
22,CAGCGGAA,0.0135
23,ATCATTGA,0.1
24,GACGGACC,-0.24
25,CAATTAGC,-0.0535

row,Sequence,binding signal [E-score]
1,AACCCTCA,-0.231
2,TCGGGACA,-0.143
3,TGCTAGAA,0.387
4,AAGTATCT,0.297
5,CATATTGG,-0.0429
6,ATTCCGCG,0.129
7,CGATTGTC,-0.0643
8,CCGCACGA,-0.246
9,GCTCATAC,-0.052
10,AGGGGTTG,-0.383
11,AATTATTG,0.239
12,GTATGTCA,0.125
13,GGACACCC,-0.245
14,CTACAGAA,0.152
15,GTAGCCGA,0.0377
16,TCCTACGA,0.114
17,GCGGAATA,0.179
18,AAGGTGGG,-0.188
19,AATGTTGC,0.0756
20,CACTACCA,0.221
21,ATCCTAAA,0.0823
22,GGCCTCGA,-0.268
23,AATAGATA,0.262
24,ATCGTTGC,0.139
25,ATGCTATA,0.339

row,Sequence,binding signal [E-score]
1,ATGAGAAC,-0.0393
2,CGCGGGTA,0.0702
3,AAGACGGT,-0.057
4,ACCCGCAC,-0.148
5,AGAGGCTC,-0.231
6,ACAGTGGC,-0.0538
7,AACCACCT,-0.126
8,ATACTACC,0.36
9,ACATCTCC,0.0372
10,GGTCAGAC,-0.135
11,TTCTACAA,0.392
12,ACTCACGC,-0.154
13,CCTACCAG,0.0237
14,ATCGGCAC,-0.222
15,GAGACCGA,-0.26
16,GGGTTCAC,-0.16
17,AGTCAACC,-0.203
18,CAGAGATA,0.188
19,AATCCCCT,-0.174
20,AGGAAGAG,-0.228
21,AGCCCCAT,-0.213
22,AGAAGTAG,0.219
